Data as given in publication PMC4336329 (PLoS ONE, 2015).
Among all 310,000 compounds or so, about 14,000 (4.5%) showed an effect of 50% or more. Effects have a minus sign here. This is one part of the list.

Target: human ether-à-go-go-related gene (hERG) potassium channel (human, UniProt Q12809)
Test: primary screen, population patch clamp on CHO cells stably expressing hERG
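Note: peak tail current of the secondary pulse compared with the same well before compound.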

Chain of human ether-à-go-go-related gene (hERG) potassium channel (Q12809 whole entry, looked up): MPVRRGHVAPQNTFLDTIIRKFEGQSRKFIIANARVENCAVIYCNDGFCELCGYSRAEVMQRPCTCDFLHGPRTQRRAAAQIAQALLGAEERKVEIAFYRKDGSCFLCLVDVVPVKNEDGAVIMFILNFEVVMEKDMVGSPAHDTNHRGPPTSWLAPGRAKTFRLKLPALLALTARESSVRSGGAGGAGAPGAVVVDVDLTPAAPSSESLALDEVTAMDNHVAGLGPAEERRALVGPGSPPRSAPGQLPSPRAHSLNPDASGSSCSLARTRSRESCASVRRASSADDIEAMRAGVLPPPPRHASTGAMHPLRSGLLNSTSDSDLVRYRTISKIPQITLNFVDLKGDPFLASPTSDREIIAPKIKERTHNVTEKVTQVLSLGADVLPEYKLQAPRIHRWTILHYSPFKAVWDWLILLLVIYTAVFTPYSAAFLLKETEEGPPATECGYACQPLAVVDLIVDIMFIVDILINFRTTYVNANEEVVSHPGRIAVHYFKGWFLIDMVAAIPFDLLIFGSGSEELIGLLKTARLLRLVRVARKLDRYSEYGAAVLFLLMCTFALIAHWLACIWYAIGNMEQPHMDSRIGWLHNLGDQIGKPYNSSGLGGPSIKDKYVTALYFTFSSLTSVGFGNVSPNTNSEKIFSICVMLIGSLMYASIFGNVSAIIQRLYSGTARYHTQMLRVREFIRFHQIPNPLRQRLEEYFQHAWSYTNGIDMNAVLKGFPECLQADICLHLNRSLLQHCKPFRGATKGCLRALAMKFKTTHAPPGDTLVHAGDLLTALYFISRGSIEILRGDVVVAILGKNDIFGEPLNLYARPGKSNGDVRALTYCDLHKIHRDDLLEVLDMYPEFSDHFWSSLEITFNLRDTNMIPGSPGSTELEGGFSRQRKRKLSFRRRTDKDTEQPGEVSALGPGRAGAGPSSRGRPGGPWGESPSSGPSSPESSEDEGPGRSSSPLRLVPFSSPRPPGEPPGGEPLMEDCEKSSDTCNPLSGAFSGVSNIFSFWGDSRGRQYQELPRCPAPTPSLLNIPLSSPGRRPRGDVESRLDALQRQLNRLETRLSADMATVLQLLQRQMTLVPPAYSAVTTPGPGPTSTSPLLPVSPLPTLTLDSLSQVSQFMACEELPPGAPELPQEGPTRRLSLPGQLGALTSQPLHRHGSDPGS

Compound | hERG current change (%, negative = inhibition) at 10uM [%]
O=C(CSc1ccc(Br)cc1)N1CCN(C(=O)c2ccco2)CC1 | -62.4
Cc1ccc2[nH]c(C)c(CCNCc3cccnc3)c2c1.Cl | 0.252
Cc1ccc(N(Cc2ccccc2)C(=O)c2cccc(S(=O)(=O)N3CCOCC3)c2)cc1 | -74.5
COc1cc2c(cc1NC(=O)c1cncc(Br)c1)oc1ccccc12 | 19
O=C(OCC(=O)N1CCCCC1)c1c[nH]c2ccccc12 | -7.04
O=C1CCN(C(=O)CNC(=O)Cc2ccccc2)CC1 | 16.8
CCCCc1sc(-c2c(C#N)c(N)nc3c2CCCCC3)cc1[N+](=O)[O-] | -18.8
CC1=NC(C(F)(F)F)(C(F)(F)F)C(C#N)=C(C)N1 | 5.98
O=C(Nc1ccccc1)Nc1cccc(C(F)(F)F)c1 | 17.4
Clc1ccc(-c2nc3ccc(Cl)cn3c2CN2CCCCC2)cc1 | 5.11
CC(C)(C)C(=O)Nc1cc(NC(=O)C(C)(C)C)cc(C(=O)Nc2c[nH]c(=O)[nH]c2=O)c1 | -1.81
CSc1cccc(NC(=O)COc2cccc3ccccc23)c1 | 13.5
COc1cc(C=C2C(=O)NC(=O)NC2=O)cc(OC)c1OC | 22.1
N=c1oc2ccc(Br)cc2cc1C(=O)NC1CCCCCC1 | -12.6
CC(C)CNC(=O)COc1ncnc2ccccc12 | 19.2
O=C(/C=C/c1cccc([N+](=O)[O-])c1)N1CC[C@@]2(O)CCCC[C@H]2C1 | -18.4
CCOC(=O)NNC(=O)NCCCCCCNC(=O)NNC(=O)OCC | 10.9
COc1ccc(NS(=O)(=O)c2cccc(C(=O)N3CCN(Cc4ccc5c(c4)OCO5)CC3)c2)cc1 | -76.8
CCn1cc(C(=O)N2CCc3ccccc32)c(=O)c2cc(S(=O)(=O)N(C)C3CCCCC3)ccc21 | -47.7
Cc1onc(-c2ccccc2)c1C(=O)Oc1cccnc1 | -18.7
O=c1oc2ccccc2c(O)c1Cc1cc(Cl)c2cccnc2c1O | 2.42
O=C(NCc1ccccc1)C1C2C=CC3(CN(Cc4cccnc4)C(=O)C13)O2 (stereo not shown) | 10
O=Cc1ccc2noc(-c3ccc(Cl)cc3)c2c1 | -1.22
O=C(Nc1ccccc1F)Nc1ccccc1N1CCCCC1 | -7.83
Cc1cc(C(=O)NNC(=O)c2ccc(C(F)(F)F)cc2)no1 | 14.1
COc1ccccc1N1CCN(C(=O)Cc2cccs2)CC1 | -8.91
Cc1ccccc1-c1cccc([C@@H]2C[C@H]3CN(Cc4cccnc4)C(=O)[C@]34CCCN24)c1 | -59
CC(O)(CS(=O)(=O)Cc1ccccc1)c1ccc(Cl)cc1 (stereo not shown) | 4.72

Compound | hERG current change (%, negative = inhibition) at 10uM [%]
COCCn1c(-c2ccc(OC)cc2)nc2oc3cc(OC)ccc3c(=O)c2c1=O | -12.6
Cc1noc(C)c1COc1ccc(CC(=O)NC2CCCCCC2)cc1 | 39.5
COc1ccc(OC)c(NC(=O)CN(c2ccc(C)cc2)S(=O)(=O)c2c(C)noc2C)c1 | 3.24
O=C(NCCc1cn[nH]c1)C1CCC(=O)N(CCc2cccc(F)c2)C1 (stereo not shown) | 25.1
O=C(CSc1ccc(Cl)cc1)N1N=CCC1c1ccccc1 (stereo not shown) | -6.77
CS(=O)(=O)C1=NSC2=NC(=O)/C(=C\c3cccn3-c3ccccc3Cl)C(=N)N21 | 12.8
O=C(O)c1ccc(NC(=O)c2ccc(Cl)cc2)c(NC(=O)c2ccc(Cl)cc2)c1 | 13.5
Cc1cc(=O)oc2cc(OCC(=O)NC3CCN(Cc4ccccc4)CC3)ccc12 | -63.9
O=C1CN(O)C(c2ccccc2)=c2cc(Br)ccc2=N1 | 1.78
CCOC(=O)c1c(O)c2c([nH]c1=O)CCCC2 | 5.06
COc1cccc(CNc2nc3ccccc3n2CCN2CCCCC2)c1OC | -63.6
CN(CCOc1ccc(Br)cc1)CC(=O)Nc1cccc(S(=O)(=O)NC2=NCCC2)c1 | -11.4
CC(=O)NCCc1c[nH]c2ccc(OCC(O)CNC(C)(C)C)cc12.O=C(O)c1ccccc1 (stereo not shown) | 17.5
COc1ccc2c(c1)CCC/C2=N\Nc1nc(C(=O)NN)cs1 | 9.76
COc1cc(OC)cc(C(=O)Nc2nc3ccc(S(C)(=O)=O)cc3s2)c1 | 21.3
CSc1ccc(N=Nc2c(C)[nH]n(C)c2=O)cc1 | -6.31
CCc1ccc(CC2S/C(=C(\C#N)C(C)=O)NC2=O)cc1 (stereo not shown) | 12.4
C=CCn1c(CSc2nc3ccccc3s2)nnc1SCC(=O)NCc1ccco1 | -17.6
CCN(CC)c1ccc(NC(=O)c2ccc3c(c2)c(C)c(C)n3C)cc1 | -5.69
O=C(Nc1ccc(Nc2ccncc2)cc1)c1ccc([N+](=O)[O-])cc1 | -59.5
COc1ccc(NC(=O)COc2ccc3oc(=O)cc(C)c3c2)cc1 | 0.254
Cn1c(N)c(C(=O)COC(=O)COc2ccc(Cl)cc2)c(=O)n(C)c1=O | -23.1
CC(C)C(C)NC(=O)COc1nc2ccccc2nc1N(C)C1CCCCC1 (stereo not shown) | 24.3
CCN(CC)CCCN(Cc1cc2cc3c(cc2[nH]c1=O)OCO3)C(=S)NCCCOC | -5.13
CCOC(=O)c1ccc(S(=O)(=O)N2CCN(CC(=O)NC(=O)NC(C)(C)C)CC2)cc1 | -15.4
O=C(NNS(=O)(=O)c1ccccc1C(F)(F)F)c1cc2ncc(C(F)(F)F)cc2s1 | 12.2
CCOc1ccc(C(=O)NCC2CCCN2S(=O)(=O)c2cccs2)cc1 (stereo not shown) | -20.1
